Reference: PubChem BioAssay AID485294 (National Center for Advancing Translational Sciences (NCATS), 2010)
Among all 370,000 compounds or so, about 150 (0.041%) were called active. This list was built around the results that the source calls inconclusive (neither active nor inactive); the mix of calls is not that of the screen. Calls come from the whole dose curve; as a rule, active = well fitted inhibition curve with a large enough effect; inconclusive = small, poorly fitted or top-dose-only effect; inactive = flat fitted curve, though single readings scatter. No potency is given beside an inconclusive call; the fits are too rough.

Target: Beta-lactamase (Escherichia coli (strain K12)) (UniProt P00811)
Test: qHTS Inhibitors of AmpC Beta-Lactamase (assay with detergent); note: nearly all actives have a fitted effect of over 25% in size
Settings: AmpC hydrolysis of nitrocefin, absorbance 480 nm, 0.01% Triton; series mostly up to 114 µM
Outline: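 AmpC (5.3 nM in the dispensed reagent) in 20 mM phosphate pH 7.0 with 0.01% (detergent screen) or 0.0001% Triton X-100 was preincubated with compounds for 15 min at room temperature. Nitrocefin was then added from an 800 uM solution, and hydrolysis was followed at 480 nm.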
Potency is the fitted concentration of half-maximal effect; tags give direction and shape of the fitted curve.

Chain of UniProt P00811 (P00811 whole entry, looked up): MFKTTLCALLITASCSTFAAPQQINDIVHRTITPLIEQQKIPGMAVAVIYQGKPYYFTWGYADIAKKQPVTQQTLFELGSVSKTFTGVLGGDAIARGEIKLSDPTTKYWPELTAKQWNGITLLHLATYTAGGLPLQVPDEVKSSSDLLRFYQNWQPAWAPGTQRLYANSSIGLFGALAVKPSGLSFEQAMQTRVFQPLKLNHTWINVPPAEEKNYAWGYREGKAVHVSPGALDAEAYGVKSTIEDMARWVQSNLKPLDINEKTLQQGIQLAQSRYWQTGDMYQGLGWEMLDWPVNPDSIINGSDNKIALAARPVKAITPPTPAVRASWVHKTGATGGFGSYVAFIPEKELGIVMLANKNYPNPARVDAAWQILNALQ

SMILES	Potency
CCOc1ccc(C(C)=O)cc1CN1c2ccc(S(N)(=O)=O)cc2CC1C (stereo unspecified)	inconclusive [inhibitor, partial curve]
Cc1cc(C)cc(NC(=O)C(=O)NCC(c2cccnc2)N2CCOCC2)c1 (stereo unspecified)	inactive
Cc1cc2c(OCC(O)CN3CCCC3)cccc2[nH]1 (stereo unspecified)	inconclusive [inhibitor, full curve, poor fit]
Cn1c(=O)c2c(ncn2CC(=O)OCc2ccccc2)n(C)c1=O	inconclusive [inhibitor, partial curve, poor fit]
CCCCCC(=O)N1CCN(CCN=CC2=C(O)CC(c3cccs3)CC2=O)CC1 (stereo unspecified)	inconclusive [inhibitor, full curve, poor fit]
COc1cccc(NC(=O)NC2CC(=O)N(c3ccc4c(c3)OCCO4)C2)c1 (stereo unspecified)	inconclusive [inhibitor, partial curve]
O=C(CN1C(=O)C2CCCCN2C(=O)c2ccccc21)Nc1ccc(F)cc1 (stereo unspecified)	inconclusive [inhibitor, full curve]
Cn1ncc2c(Nc3cccc(C#N)c3)ncnc21	inactive
CCc1ccc(-c2nc(CN3CCC(C(=O)NCCN(CC)c4ccccc4)CC3)c(C)o2)cc1	inactive
Clc1ccc(NCc2nncn2-c2ccccc2)cc1	inconclusive [inhibitor, single point]
O=C(O)c1c2c(nc3ccccc13)-c1ccccc1CC2	inactive
Cc1ccccc1Cn1ccc(NC(=O)c2cnn3cccnc23)n1	inconclusive [inhibitor, full curve]
COC(=O)C(c1ccccc1)N(Cc1cccc(CN(C(C(=O)OC)c2ccccc2)S(C)(=O)=O)c1)S(C)(=O)=O (stereo unspecified)	inconclusive [inhibitor, full curve, poor fit]
O=C(NCCc1ccccc1)c1ccc2nc(-c3ccco3)c(-c3ccco3)nc2c1	inactive
O=C1CC(c2cc(-c3ccccc3)no2)C1	inconclusive [inhibitor, partial curve, poor fit]
COc1ccccc1N1CCN(Cc2ccccc2Cl)CC1	inconclusive [inhibitor, full curve]
O=C(N/N=C/c1cc(O)ccc1Br)c1cccnc1	inconclusive [inhibitor, full curve, poor fit]
O=C1OCc2cc(NC(=O)C34CC5CC(CC(C5)C3)C4)ccc21	inconclusive [inhibitor, full curve, poor fit]
CCNC(=O)CSc1nc2cc(OC)c(OC)cc2c(=O)n1CCC1=CCCCC1	inconclusive [inhibitor, full curve, poor fit]
CCN1CCN(c2ccc(NC(=O)c3cccc(N4CCCC4=O)c3)cc2)CC1	inconclusive [inhibitor, full curve, poor fit]
CCc1ccc(C(=O)N/N=C/c2ccncc2)s1	inconclusive [inhibitor, full curve, poor fit]
O=C(CSCc1cccc(CSCC(=O)Nc2ccccc2)n1)Nc1ccccc1	inactive
COc1ccc(Cc2nc3ccc(C(=O)NCCc4ccc(Cl)cc4)cc3o2)cc1	inactive
Cc1ccccc1NC(=O)Nc1ccc2c(c1)OCO2	inactive

SMILES	Potency
O=C(CSC(=S)N1CCOCC1)Nc1nc(=O)c2ccccc2s1	inconclusive [inhibitor, full curve, poor fit]
NNC(=O)c1ccc(Cn2cc(Br)cn2)o1	inconclusive [inhibitor, full curve, poor fit]
COc1cc2c(cc1OC)C(c1ccc([N+](=O)[O-])cc1)N(C(C)=O)CC2 (stereo unspecified)	inconclusive [inhibitor, partial curve, poor fit]
Cc1cccc(OCCNc2ccc(C(F)(F)F)cc2[N+](=O)[O-])c1	inconclusive [inhibitor, full curve]
Cc1cnc(-c2nnc(N(C)C(=O)c3cccnc3)s2)cn1	inconclusive [inhibitor, full curve]
O=C(NNC(=S)NC(=O)c1ccco1)c1ccc(NC(=O)c2ccccc2)cc1	inactive
CC(=O)c1cc2c(cc1N/C(=N/S(=O)(=O)c1ccc(C)cc1)c1ccc(Cl)cc1)OCO2	inconclusive [inhibitor, single point]
C(=C\n1nnc2ccccc21)/c1ccccn1	inconclusive [inhibitor, single point]
O=C(CCn1c(=O)c2cccn2c2cccnc21)NCc1cccc(Br)c1	inactive
CSc1nc(N)nc(SCC(=O)c2ccccc2)c1C#N	inconclusive [inhibitor, single point]
Cc1c(C(=O)NC2CCCCC2C)oc2ccccc12 (stereo unspecified)	inactive
CN=C(Nc1ccc(Cl)cc1)c1ccc(C(F)(F)F)cc1	inconclusive [inhibitor, partial curve, poor fit]
CCn1c(=O)c2ccccc2n(Cc2ccccc2C)c1=O	inconclusive [inhibitor, partial curve]
COc1ccc(-c2nc(C)ncc2N=Nc2ccccc2)cc1	inactive
COc1ccc(C/C(C)=N/NC(=O)c2ccncc2)cc1	inconclusive [inhibitor, partial curve]
Cc1ccc(N(CCC#N)C(=O)COC(=O)C2CCN(c3ccc(C(F)(F)F)cn3)CC2)cc1	inconclusive [inhibitor, single point]
COc1cccc(C(=O)Nc2nc3ccc(S(C)(=O)=O)cc3s2)c1	inconclusive [inhibitor, single point]
COc1ccccc1-c1cc(C(F)(F)F)nc(S(=O)(=O)CCCC(=O)O)n1	inactive
O=C1CC(N2CCN(c3nc4ccccc4s3)CC2)C(=O)N1Cc1cccs1 (stereo unspecified)	inconclusive [inhibitor, full curve, poor fit]
O=C(CN1CCN(Cc2ccccc2)CC1)Nc1nnc(C(F)(F)F)s1	inconclusive [inhibitor, partial curve, poor fit]
CCCCn1nc(C(=O)O)ccc1=O	inconclusive [inhibitor, full curve]
Cc1cc(C)c2nc(Cl)c(C3NC(=O)c4ccccc4N3)cc2c1 (stereo unspecified)	inconclusive [inhibitor, full curve]
CCOc1ccc(NC(=O)CSc2nc3ccccc3c(=O)n2CCC(=O)NC2CCCCC2)cc1	inactive
O=C(Nc1ccccc1)OCCOc1ccccc1Br	inconclusive [inhibitor, full curve, poor fit]

SMILES	Potency
O=C(Nc1ccccc1N1CCOCC1)c1cccc(Oc2ccccc2)c1	inconclusive [inhibitor, partial curve, poor fit]
C=CCN(CC=C)C(=O)c1cccc(OC2CCN(CC(C)(C)C)CC2)c1	inconclusive [inhibitor, partial curve, poor fit]
CNS(=O)(=O)c1cccc(C(=O)OCC(=O)c2ccc3c(c2)OCCO3)c1	inconclusive [inhibitor, partial curve, poor fit]
CN1CCN(CCc2nc3cc(NC(=O)COc4ccc(Cl)cc4)ccc3n2C)CC1	inactive
Cc1ccc(NC(=O)CN2C(=O)C(C)(C)c3cc(S(=O)(=O)N4CCCCC4)ccc32)c(Br)c1	inactive
COc1cccc(-c2cc(C(=O)Nc3cccnc3Cl)no2)c1	inconclusive [inhibitor, full curve, poor fit]
Cc1cc(NC(=S)NC(=O)CC(C)C)ccc1Br	inactive
CC(=O)Oc1c(C)c(OC(C)=O)c2c(c1C(C)=O)OC1CC(=O)C(C(C)=O)=C(O)C21C (stereo unspecified)	inactive
CC(/C=N/NC(=O)c1nnn(-c2nonc2N)c1C(C)C)=C\c1ccccc1	inactive
COC(=O)c1ccc(Cn2nc(-c3cc(C)ccc3C)ccc2=O)cc1	inactive
Brc1ccccc1C1Nc2cccc3cccc(c23)N1	inconclusive [inhibitor, full curve, poor fit]
COc1ccc(CN2CCN(C(=O)c3ccc(S(=O)(=O)N4CCCCCC4)cc3)CC2)cc1F	inconclusive [inhibitor, partial curve, poor fit]
CCc1c(C)nc(N)nc1N1N=C1SCC#N	inconclusive [inhibitor, full curve]
CCc1ccccc1NC(=O)Cn1c(=O)ccc2cc(S(=O)(=O)N3CCC(C)CC3)ccc21	inactive
CSc1ccc(/C=C/C(=O)OCC(=O)N2CCN(S(=O)(=O)c3ccc(C)cc3C)CC2)cc1	inactive
CCC(C)(C)NC(=O)CN(Cc1ccc2c(c1)OCO2)C(=O)CCC(=O)Nc1nccs1	inconclusive [inhibitor, full curve]
N#Cc1cc2c(nc1SCC(=O)NCc1ccc3c(c1)OCO3)CCCCC2	inconclusive [inhibitor, full curve]
N#C/C(=C\c1ccc(O)c(O)c1)S(=O)(=O)c1ccccc1	inactive
CCOC(=O)C1CCCCN1Cc1cccc(C(F)(F)F)c1 (stereo unspecified)	inactive
COc1cccc(NC(=O)N2CCC(CN3CCOCC3)CC2)c1	inactive
N#CC12COC3(CCCCC3C1(C#N)C#N)OC2=N (stereo unspecified)	inactive
CCOc1cccc(C(=O)NC(=S)Nc2cccc(NC(=O)c3ccccc3Cl)c2)c1	inactive
CN1CCN(C(=O)c2ccccc2-c2nc(-c3ccc(Cl)cc3)no2)CC1	inconclusive [inhibitor, full curve]
